Here are results for 20 variants from the RNAGym collection of RNA variant scans (doi:10.7554/elife.90254).

The source gives no read counts; variants with many changes may rest on few reads.

First the molecules themselves.
B1: OR4K15 (parent)
chain: GUUAACGGUCAUAGGCCAUGGAAACUAGGAGCACCAUUUCGCUGCCAGUGAAGAAAUGAACAAAGAAAAUCUGGGCCAGGCAGGCAUCAAAAGAAAUAGUCUUGCGCUCAACCAGAAAGUCUGUAAUCAUUUUAAGGGUA

This data set covers variants of B1. The experiment in a line: self-cleavage, relative activity (ratio to wild type); higher = more cleavage; in vitro, sequencing; the parent is a self-cleaving ribozyme.
Take GUUAACGGUCAUAGGCCAUGGAAGCUAGGAGCACCAUUCCGCUGCCAGUGAAGAAAUGAACAAAGAAAAUCUGGGCCAGGCAGGCAUCAAAAGAAAUAGUCUUGCGCUCAACCAGAAAGUCUGUAAUCAUUUUAGGGGUA: the self-cleavage worked out at 1.2.
With GUUAACGGUCAUAGGCCAUGGAAGCCAGGAGCACCAUUUCGCUGCCAGUGAAGAAAUGAACAAAGAAAAUCUGGGCCAGGCAGGCAUCAAAAGAAAUAGUCUUGCGCUCAACCAGAAAGUCUGCAAUCAUUUUAAGGGAA, the self-cleavage stood at 1.05.
In the case of GUUAACGGUCAUAGGCCAUGGAAGCUAGGAGCACCAUUUCGCCGCCAGUGAAGAAAUGAACAAAGAAAAUCUGGGCCAGGCAAGCAUCAAAAGAAAUAGUCUUGCGCUCAACCAGAAAGUAUGUAAUCAUUUUAAGGGUA, the self-cleavage came out at 2.69.
As for GUUAACGGUCAUAGGCCAUGGAAGCUAGGAGCACCAUUCCGCUGCCAGUGAAGAAAUGAACAGAGAAAAUCUGGGCCAGGCAGGCACCAAAAGAAAUAGUCUUGCGCUCAACCAGAAAGACUGCAAUCAUCUUAGGGGUA, the self-cleavage came out at 0.65.
As for GUUAACGGUCAUAGGCCAUGGAAGCUAGGAGCACCAUUUCGCUGCCAGUAAAGAAAUGAACAAAGAAAAUCUGGGCCAGGCAGGCAUCAAAAGAAAUAGUCUUGCGCUCAGCCAGAAAGUCUGUAAUCAUUUUAAGGGUA, the self-cleavage was determined as 0.03.
On to GUUAACGGUCAUAGGCCAUGGAAGCUAGGAGCACCAUUUCGCUGCCAGAGAAGAAAUGAACAAAGAAAAUCUGGGCCAGGCAGGCAUCGAAAGAAAUAGUCUUGCGCUCAACCAGAAAGUCUGUAAUCAUUUUAAGGGUA, for which the self-cleavage worked out at 1.63.
Under GUUAACGGUCAUAGGCCAUGGAAGCUAGGAGCACCACUUCGCUGCCAGUGAAGAAAUGAACAAUGAAAAUCUGGGCCAGGCAGGCAUCAAAAGAAAUAGUCUUGCGCUCAACCAGAAAGUCUGUAAUCAUUUUAAGGGUA stands 1.19; under GUUAACGGUCAUAGGCCAUGGAAGCUAGGAGCACCAUUUCGCCGCCAGUGGGGAAAUGAACAAAGAAAAUCUGGGCCAGGCAGGCACCAAAAGAAAUAGUCUUGCGCUCAACCAGAAAGUCUGUAAUCAUUUUAAGGGUA, 0.48; under GUUAACGGUCAUAGGCCAUGGAAGCUAGGAGCACCAUUUCGCUGCCAGUGAAGAAAUGAACAAAGAAAAUCUGGGCCAGGCAGGCAUCAAAAGAAAUAGUCCUGCGCUCAACCAGAAAGUCUGUAAUCACUUUAAGGGUA, 1.38.
Take GUUAACGGUCAUAGGCCAUGGAAGCUAGGAGCACCAUUUCGCCGCCAGUGAAGAAAUGAACAAAGAAAAUCUGGGCCAGGCAGGCAUCAAAAGAAAUAGUCUCGCGCUCAACCAGAAAGUCUGUAAUCAUUUUAAGGGUA: the self-cleavage came out at 1.26.
Consider GUUAACGGUCAUAGGCCAUGGAAGCUAGGAGCACCAUUUCGCCGCCAGUGAAGAAGUGAACAAAGAAAAUCUGGGCCAGGCAGGCAUCAAAAGAAAUAGUCUUGUGCUCAACCAGAAAGUCUGUAAUCAUCUUAAGGGUA, for which the self-cleavage came to 0.09.
As for GUUAACGGUCAUAGGCCAUGGAAGCUAGGAGCACCACUUCGCCGCCAGUGAAGAAACGAACAAAGAAAAUCUGGGCCAGACAGGCAUCAAAAGAAACAGUCUUGCGCUCAGCCAGAAAGUCUGUAAUCAUUUUAAGGGUA, the self-cleavage was 0.01.
With GUUAACGGUCAUAGGCCAUGGAAGCUAGGAGCACCAUUACGCUGCCAGAGAAGAAAUGAACAACGAAAAUCUGGGCCAGGCAGGCAUCAAAAGAAAUAGUCUUGCGCUCAACCAGAAAGUCUGUAAUCAUUUUAAGGGUA, the self-cleavage was found to be 0.61.
Under GUUAACGGUCAUAGGCCAUGGAAGCUAGGAGCACCAUUUCGCUGCCAGAGAAGAAAUGAACAAUGAAAAUCUGGGCCAGGCAGGCAUCAAAAGAAAUAGUCUUGCGCUCAACCAGAAAGUCUGUAAUCAUUUUAAGGGUA stands 2.19; under GUUAACGGUCAUAGGCCAUGGAAGCUAGGAGCACCAUCUCGCUGCCAGUGAAGAAAUGAACAAGGAAAAUCUGGGCCAGGCAGGCGUCAAAAGAAAUAGUCUCGCGCUCAACCAGAAAGUCUGUAAUCAUCUUAAGGGUA, 1.18.
For GUUAACGGUCAUAGGCCAUGGAAGCUAGGAGCACCAUUCCGCUGCCAGUGAAGAAAUGAACAAAGAAAAUCCGGGCCAGGCAGGCAUCAAAAGAAAUAGUCUUGCGCUCAACCAGAAAGUCUGUAAUCAUUUUAAGGGUA the value was 0.64; for GUUAACGGUCAUAGGCCAUGGAAGCUAGGAGCACCAUAUCGCUGCCAGUGAAGAAAUGAACAAAGAAAAUCUGGGCCAGGCAGGCACCAAAAGAAAUAGUCUUGCGCUCAACCAGAAAGUCUGUAAUCAUUUUAAGGGUA, 1.49; for GUUAACGGUCAUAGGCCAUGGAAGCUAGGAGCACCAUUUCGCUGCCAGCGAAGAAAUGAACAAAGAAAAUCUGGGCCAGGCAGGCAUCAAAAGAAAUAGUCUUGCGCUCAACCAGUAAGUCUGUGAUCAUUUUAAGGGUA, 0.06.
Under GUUAACGGUCAUAGGCCAUGGAAGCUAGGAGCACCAUAUCGCUGCCAGUGAAGAAAUGAACAAAGAAAAUCUGGGCCAGGCAGGCAUCAAAAGAAAUAGUCUUGCGCCCAACCAGAAAGUCUGUAAUCAUUUUAAGGGUA stands 0.08; under GUUAACGGUCAUAGGCCAUGGAAGCUAGGAGCACCAUUUCGCCGCCAGUGAAGAAAUGAACAAAGAAAAUCUGGGCUAUGCAGGCAUCAAAAGAAAUAGUCUUGCGCUCAACCAGAAAGUCUGUAAUCAUUUUAAGGGUA, 0.25.
